Assay results reported in PubChem BioAssay (EPA / NIEHS).
Certain results were filed several times, with different values. The other results are left out here. Rule for the calls: active = hit-call score of the fitted dose curve at least 0.9, where 1 is the maximum; inactive = score below 0.9. There may be further records. Values given together repeat one measurement across runs, samples, wells, individuals or studies.

Columns and labels:
[1] = ATG_PXRE_CIS: Attagene CIS-FACTORIAL HepG2 Assay for human Pregnane X Receptor Element (PXRE) (AID 2282957); details: HepG2 Attagene CIS-FACTORIAL PXRE reporter, mRNA; actives raise or lower the signal
Description: (§1) ATG_CIS is a cell-based, multiplexed-readout assay that uses HepG2, a human liver cell line, with measurements taken at 24 hours after chemical dosing in a 24-well plate.ATG_PXRE_CIS is one of 52 assay component(s) measured or calculated from the ATG_CIS assay. It is designed to make measurements of mRNA induction, a form of inducible reporter, as detected with fluorescence intensity signals by Reverse transcription polymerase chain reaction (RT-PCR) and Capillary electrophoresis technology.Data from the assay component ATG_PXRE_CIS was analyzed into 1 assay endpoint. This assay endpoint, ATG_PXRE_CIS, was analyzed with bidirectional fitting relative to DMSO as the negative control and baseline of activity. […] Furthermore, this assay endpoint can be referred to as a primary readout, because this assay has produced multiple assay endpoints where this one serves a reporter gene function. […]
(§2) Human liver HepG2 cells are transiently transfected with multiple reporter transcription units (MRTUs) in 6-well plates using FuGene 6 reagent (Roche; 3 ml FuGene/1 mg DNA). […] A major difference between the CIS and TRANS system is that in CIS activities of endogenous TFs are measured, whereas the TRANS assay evaluates changes in activities of exogenous, chimeric NR-Gal4 proteins. […]

[2] = ATG_DR4_LXR_CIS: Attagene CIS-FACTORIAL HepG2 Assay for human Liver X Receptor (LXR), DR4 submotif (AID 2282929); details: HepG2 Attagene DR4 cis-reporter, mRNA transcription; actives raise or lower the signal
Procedure, shortened: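 Measures endogenous transcription factor activity via a DR4-driven reporter transcript in human HepG2 cells. Compounds incubated 24 h; mRNA quantified by RT-PCR and capillary electrophoresis, analysed as gain or loss of signal versus DMSO.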

[3] = ATG_AP_2_CIS: Attagene CIS-FACTORIAL HepG2 Assay for human Activator Protein 2 (AP-2) (AID 2282932); details: HepG2 AP-2 cis-reporter, Attagene transcription factor profiling; actives raise or lower the signal
Procedure, shortened: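 Bidirectional curve fitting against DMSO was applied to reporter mRNA signals from HepG2 cells 24 h after dosing. Cis-promoter reporter units, transiently transfected, were read by RT-PCR plus capillary electrophoresis.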

[4] = ATG_E_Box_CIS: Attagene CIS-FACTORIAL HepG2 Assay for human Enhancer Box (E-box) (AID 2282936); details: HepG2 E-box cis-reporter transcription, actives raise or lower the signal
Description: as §1, with “plate.ATG_E_Box_CIS” for “plate.ATG_PXRE_CIS”, “ATG_E_Box_CIS” for “ATG_PXRE_CIS”, “ATG_E_Box_CIS,” for “ATG_PXRE_CIS,”
as §2

[5] = ATG_FoxO_CIS: Attagene CIS-FACTORIAL HepG2 Assay for human Forkhead box O (FoxO) (AID 2282943); details: HepG2 Attagene cis-reporter, FoxO element, mRNA; actives raise or lower the signal
Procedure, shortened: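 Values reflect reporter mRNA induction or loss in HepG2 cells 24 h post-dosing, fitted bidirectionally with DMSO as negative control and baseline. Detection used RT-PCR and fluorescence capillary electrophoresis.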

[6] = ATG_ISRE_CIS: Attagene CIS-FACTORIAL HepG2 Assay for human Interferon Regulatory Factor 1 (IRF1) binding to an Interferon-Stimulated Response Element (ISRE) (AID 2282948); details: HepG2 ISRE cis-reporter (Attagene), mRNA transcription readout; actives raise or lower the signal
Procedure, shortened: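 Transfected HepG2 (multiple reporter transcription units, cis elements) dosed 24 h. RNA → oligo(dT) RT → PCR → 6-FAM primer extension → HpaI → CE. DMSO = negative control/baseline.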

[7] = ATG_TGFb_CIS: Attagene CIS-FACTORIAL HepG2 Assay for human Transforming Growth Factor (TGF) (AID 2282967); details: HepG2 Attagene CIS TGFb reporter, mRNA transcription; actives raise or lower the signal
Procedure, shortened: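 Bidirectional fitting relative to DMSO gave the endpoint. Underlying data: reporter mRNA from HepG2 cells carrying transiently transfected cis-regulated reporter constructs, harvested 24 h after dosing and analyzed by RT-PCR and capillary electrophoresis.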

[8] = ATG_NRF2_ARE_CIS: Attagene CIS-FACTORIAL HepG2 Assay for human Nuclear Factor Erythroid 2 Related Factor 2 (NFR2) response to Antioxidant Response Elements (ARE) (AID 2282992); details: HepG2 Attagene ARE/NRF2 reporter, transcription factor activity; actives raise or lower the signal
Description: as §1, with “plate.ATG_NRF2_ARE_CIS” for “plate.ATG_PXRE_CIS”, “ATG_NRF2_ARE_CIS” for “ATG_PXRE_CIS”, “ATG_NRF2_ARE_CIS,” for “ATG_PXRE_CIS,”
as §2

Compound	AC50 [1]	AC50 [2]	AC50 [3]	AC50 [4]	AC50 [5]	AC50 [6]	AC50 [7]	AC50 [8]
O=C1C2(Cl)C3(Cl)C4(Cl)C(Cl)(Cl)C5(Cl)C3(Cl)C1(Cl)C5(Cl)C24Cl (centres undefined)	active: 945 nM, 929 nM, 1.12 µM, 20 µM [separate samples]	–	–	–	–	–	–	–
C[C@@H]1C[C@@H]([C@H](O)CC2CC(=O)NC(=O)C2)C(=O)[C@@H](C)C1	active: 6.53, 23.4, 3.24, 12.9 µM [separate samples]	active: 41.2 µM, 316 nM, 24.2 µM, 19 µM [separate samples]	active: 479 nM, 2.86 µM, 655 nM, 1.92 µM [separate samples]	active: 2.39 µM, 970 nM, 2.62 µM, 3.75 µM [separate samples]	active: 22.6, 1.81, 4.75, 4.19 µM [separate samples]	active: 2.87, 6.8, 1.2, 2.31 µM [separate samples]	active: 32.1, 22.3, 5.52, 8.87 µM [separate samples]	active: 231 nM, 17.8 µM, 3.83 µM, 22.1 µM [separate samples]
